In all, about 410,000 compounds went through this assay and about 6,400 (1.6%) were called active. Inconclusive results, whose numbers are uncertain, are shown with a selection of clear calls. Calls follow the shape of the dose curve; as a rule, active = well fitted inhibition curve with a large enough effect; inconclusive = small, poorly fitted or top-dose-only effect; inactive = no such curve, though single readings can be large or run the other way. No potency is given beside an inconclusive call; the fits are too rough.
Target: Glucagon-like peptide 1 receptor (Homo sapiens) (UniProt P43220)
Assay: qHTS of GLP-1 Receptor Inverse Agonists (Inhibition Mode); also: nearly all actives have a fitted effect of over 55% in size
Settings: HEK293 GLP-1R CRE-luciferase, luminescence, 24 h, GLP-1R form is constitutively active; activity change, negative = inhibition: at 38.3 µM (top of the series) unless noted
Procedure, shortened: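 GLP-1R inverse agonism mode: basal reporter luminescence in engineered HEK293 cells measured after one day of compound exposure at 37 deg C, with a 12 min room-temperature detection step.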
% is scaled to controls: 0 for no effect and ±100 for the full control effect; potency is read from the fitted curve at half-maximal effect; tags tell the direction and shape of the fitted curve.

Chain of UniProt P43220 (P43220 whole entry, looked up): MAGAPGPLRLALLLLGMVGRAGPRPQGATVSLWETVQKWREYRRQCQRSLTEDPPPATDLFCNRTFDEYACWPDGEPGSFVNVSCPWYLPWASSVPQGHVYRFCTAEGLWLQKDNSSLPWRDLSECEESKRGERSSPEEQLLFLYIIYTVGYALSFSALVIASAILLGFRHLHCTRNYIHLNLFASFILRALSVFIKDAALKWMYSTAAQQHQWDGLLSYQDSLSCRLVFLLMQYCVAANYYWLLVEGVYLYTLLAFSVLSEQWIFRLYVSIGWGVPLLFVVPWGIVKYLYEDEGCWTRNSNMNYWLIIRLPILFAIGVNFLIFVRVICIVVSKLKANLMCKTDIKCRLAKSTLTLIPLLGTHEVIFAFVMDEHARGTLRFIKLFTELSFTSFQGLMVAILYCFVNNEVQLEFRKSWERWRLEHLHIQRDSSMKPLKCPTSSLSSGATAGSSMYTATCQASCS

| SMILES | Potency | activity change, negative = inhibition |
| --- | --- | --- |
| Cc1ccc2[nH]cc(CCCN3C(=O)c4ccccc4C3=O)c2c1 | inconclusive [inhibitor, single point] |  |
| COc1ccc(Cc2c(-c3ccccc3)nc3cc(C)c(Br)c(C)n23)c(C)c1 | inconclusive [inhibitor, partial curve, poor fit] |  |
| Cc1cc(Cl)ccc1NC(=O)CCS(=O)(=O)c1cc2c(cc1C)NC(=O)CO2 |  | inactive: 3.3% |
| O=C(NC1CCCCCC1)C(=S)NCCc1ccccc1 | inconclusive [inhibitor, partial curve, poor fit] |  |
| O=C(NCc1ccncc1)C1CCCN(S(=O)(=O)c2ccc(Br)cc2)C1 (configuration not stated) | inconclusive [inhibitor, partial curve, poor fit] |  |
| COc1ccc2c(c1)c(=O)c(C(=O)c1ccccc1)cn2Cc1ccc(C)cc1 | inconclusive [inhibitor, partial curve, poor fit] |  |
| CC1CCC(NC(=O)C2(C)Cc3ccccc3C(=O)N2Cc2ccccc2Cl)CC1 (configuration not stated) |  | inactive: 4.05% |
| Cc1cc(C)c2oc(C(=O)Nc3c(C(=O)c4ccc(F)cc4)oc4ccccc34)cc(=O)c2c1 |  | inactive: 5.7% |
| CC(C)COC(=O)N1CCCCC1c1cc(C(=O)Nc2ccc3c(c2)OCO3)no1 (configuration not stated) | inconclusive [inhibitor, single point] |  |
| COc1cc(C(=O)NC2CCN(C)CC2)ccc1Nc1ncc2c(n1)N(CCc1ccccc1)CCC(=O)N2C | inconclusive [inhibitor, partial curve, poor fit] |  |
| O=C(O)c1ccc(NC2=Nc3cccc4cccc2c34)cc1 |  | inactive: 40.2% |
| Cc1ccc(C)c(CN2C(=O)c3ccccc3Sc3ccc(C(=O)NCc4ccco4)cc32)c1 | inconclusive [inhibitor, partial curve, poor fit] |  |
| CCc1ccc(CNC(=O)Cc2ccc(NC(=O)C3=C(C)OCCS3)cc2)cc1 | inconclusive [inhibitor, full curve, poor fit] |  |
| Cc1ccc(-n2ncc(C(=O)Nc3cc(Cl)ccc3C)c2C2CCNCC2)cc1C | inconclusive [inhibitor, full curve, poor fit] |  |
| CCCC1O[C@@H]2C[C@H]3[C@@H]4CCC5=CC(=O)C=C[C@]5(C)[C@H]4[C@@H](O)C[C@]3(C)[C@]2(C(=O)CO)O1 (some centres not stated) | inconclusive [inhibitor, partial curve, poor fit] |  |
| O=C(Nc1ccccc1N1CCN(C(=O)c2ccc(Cl)cc2)CC1)c1cc2ccccc2o1 | inconclusive [inhibitor, partial curve, poor fit] |  |
| CCOc1ccc(NC(=O)C(=O)NCCN2CCN(S(=O)(=O)c3ccccc3)CC2)cc1 |  | inactive: 3.93% |
| CCC(=O)Nc1cc(C(=O)NCc2ccc(C)cc2)ccc1S(=O)(=O)c1ccc(C)cc1 | inconclusive [inhibitor, single point] |  |
| CC1CC(C)CN(C(=S)Nc2ccc(OC(F)F)cc2)C1 (configuration not stated) | inconclusive [inhibitor, single point] |  |
| Cc1cc(S(=O)(=O)Nc2cccc(-c3ccc(N4CCOCC4)nn3)c2)c(C)cc1Cl | inconclusive [inhibitor, single point] |  |
| Cc1ccc(-c2c[n+]3c(n2-c2ccccc2)CCC3)cc1 | inconclusive [inhibitor, full curve, poor fit] |  |

| SMILES | Potency | activity change, negative = inhibition |
| --- | --- | --- |
| CC(=O)NCCNc1nc(NC(C)C)nc2cc(-c3ccccc3)sc12 | inconclusive [inhibitor, partial curve, poor fit] |  |
| NC(=O)CC(NC(=O)Cc1cccc2ccccc12)c1ccc(NC2CCCCCCC2)c([N+](=O)[O-])c1 (configuration not stated) |  | inactive: 0.998% |
| CN1CCC(N(C)C(=S)Nc2ccc(SC(F)F)cc2)CC1 | inconclusive [inhibitor, partial curve] |  |
| COc1ccc(NS(=O)(=O)c2cc(NC(=O)c3cnc(C)cn3)ccc2N2CCCC2)cc1 | inconclusive [inhibitor, single point] |  |
| O=C(CN1CCOCC1)n1c2c(c3ccccc31)CCCC2 | inconclusive [inhibitor, partial curve, poor fit] |  |
| O=[N+]([O-])c1cccc(C=NNc2ccccc2)c1 | inconclusive [inhibitor, full curve, poor fit] |  |
| O=C(NO)c1ccccc1C(F)(F)F | inconclusive [inhibitor, single point] |  |
| Cc1ccc(CCNC(=O)c2sc3ncccc3c2-n2cccc2)cc1 | inconclusive [inhibitor, single point] |  |
| CC12CCC(=O)N1C(C(=O)NCCN1C(=O)S/C(=C\c3ccc(OC(F)F)cc3)C1=O)CS2 (configuration not stated) | inconclusive [inhibitor, partial curve, poor fit] |  |
| O=C1c2cc(Br)ccc2N(Cc2ccc(Br)cc2)S(=O)(=O)C1c1cc(Cl)c(Cl)cc1[N+](=O)[O-] (configuration not stated) | inconclusive [inhibitor, partial curve, poor fit] |  |
| CCCCSCc1nc2nc(Cl)c(Cl)nc2[nH]1 | inconclusive [inhibitor, single point] |  |
| COCc1cc(=O)[nH]c(Nc2nc3ccc(C)cc3o2)n1 | inconclusive [inhibitor, full curve, poor fit] |  |
| COc1ccc(NS(=O)(=O)c2cc(NC(=O)c3ccc(=O)[nH]n3)ccc2C)cc1 | inconclusive [inhibitor, single point] |  |
| O=S(=O)(Nc1cccc(-c2ccc(N3CCOCC3)nn2)c1)c1ccc(Cl)c(Cl)c1 | inconclusive [inhibitor, single point] |  |
| O=c1oc2ccc3ccccc3c2cc1-c1nnc(Nc2ccccc2)s1 |  | inactive: 7.8% |
| Cc1cccc(Nc2ccccc2C(=O)OCC(=O)N2CCOCC2)c1C | inconclusive [inhibitor, single point] |  |
| CNC[C@H](CC1CCCCC1)NC[C@H](NCCC1CCCC1)[C@H](C)O | inconclusive [inhibitor, partial curve, poor fit] |  |
| CCOC(=O)c1c(-c2ccccc2)oc2ccc(OC)cc12 | inconclusive [inhibitor, single point] |  |
| CSc1nc(Cl)c(Cc2ccc(OCC(C)C)cc2)c(N2CCOCC2)n1 | inconclusive [inhibitor, partial curve, poor fit] |  |
| Cc1ccc2c(c1)C(c1ccc(F)cc1)N(C(=O)C(C)C)CC(=O)N2 (configuration not stated) | inconclusive [inhibitor, partial curve, poor fit] |  |
| CN1c2ccsc2C(O)=C(C(=S)Nc2ccc(F)c(Cl)c2)S1(=O)=O | inconclusive [inhibitor, single point] |  |

| SMILES | Potency | activity change, negative = inhibition |
| --- | --- | --- |
| CCc1nnc(NC(=O)c2nc(S(=O)(=O)Cc3ccccc3)ncc2Cl)s1 | inconclusive [inhibitor, single point] |  |
| COc1ccc(-n2cc(CNCCc3cnc[nH]3)c(-c3cccc(F)c3)n2)cc1 | inconclusive [inhibitor, partial curve, poor fit] |  |
| COc1ccc(Cn2c(SCC(=O)NCc3ccccc3)nc3ccccc32)cc1 | inconclusive [inhibitor, single point] |  |
| CCOC(=O)COc1ccc2nsnc2c1Cl |  | inactive: -36.5% |
| CCCCn1c(Oc2cccc(C(=O)OC)c2)nc2c1c(=O)n(C)c(=O)n2C |  | inactive: 8.01% |
| O=C(CSc1cccc(C(F)(F)F)c1)Nc1ccc(N2CCOCC2)cc1 | inconclusive [inhibitor, single point] |  |
| CCc1c(N)nc(N)nc1Nc1ccccc1Cl | inconclusive [inhibitor, single point] |  |
| CCCS(=O)(=O)N1CCCC(C(=O)NCCCN(C)c2ccccc2)C1 (configuration not stated) | inconclusive [inhibitor, partial curve, poor fit] |  |
| CC1(C(=O)NCc2ccco2)Cc2c(-c3ccc4c(c3)OCO4)ccnc2O1 (configuration not stated) | inconclusive [inhibitor, full curve] |  |
| CCCCN(CCCC)c1nc(OC)nc(-n2nnc(C(C)=O)c2C)n1 | inconclusive [inhibitor, single point] |  |
| CCCCCCCOC(=O)C[N+](C)(C)CCOC1CC2CCC1(C)C2(C)C (configuration not stated) | inconclusive [inhibitor, partial curve, poor fit] |  |
| O=C(Nc1ccccc1)OCCOc1ccc(Cl)cc1Cl | inconclusive [inhibitor, single point] |  |
| COc1ccccc1C(=O)Nc1cc(-c2cccc(Br)c2)nn1-c1ccccc1 |  | inactive: 0.169% |
| O=C(NC1CC2CCCC(C1)N2S(=O)(=O)c1ccccc1)c1ccccc1 (configuration not stated) | inconclusive [inhibitor, single point] |  |
| CC1Cc2ccccc2N1S(=O)(=O)c1cnc(Cl)c(Br)c1 (configuration not stated) | inconclusive [inhibitor, single point] |  |
| Cc1ccc(-c2cc3nc(-c4ccccc4)cc(NCCCO)n3n2)cc1 | inconclusive [inhibitor, partial curve, poor fit] |  |
| COc1ccc(Cl)cc1NC(=O)C(C)n1nnc2sc3c(c2c1=O)CCCC3 (configuration not stated) |  | inactive: 6.23% |
| Cc1cccc(NC(=O)CSc2nc(-c3cccs3)cc(C(F)(F)F)c2C#N)c1 |  | inactive: 9.3% |
| COc1cccc2c1O/C(=N\O)C(C(=O)Nc1cccc(Br)c1)C2 (configuration not stated) | inconclusive [inhibitor, single point] |  |
| O=S(=O)(c1ccccc1)N1N=C(c2cccs2)CC1c1cccc(O)c1 (configuration not stated) | inconclusive [inhibitor, partial curve] |  |

From PubChem BioAssay AID624417 (National Center for Advancing Translational Sciences (NCATS), 2012)
